From CN115322259A (dated 2022) come the findings set out here.

The target of experiment [1] is T1, 人源PD-1 (human, UniProt Q15116 25-288). Briefly: cell-based or functional assay.
Experiment [2] has as its target T1, 人源PD-1. As to the kind of experiment: cell-based or functional assay. This is another data set of the same source.
The target of experiment [3] is T2, 人源TGFβ1蛋白(Sinobiological，10804-H08H) (human, UniProt P01137 30-390).
T2 construct: Coated at 2 μg/mL on the ELISA plate
As to the kind of experiment: ELISA as in example 5, human TGFβ1 coated.

The target in experiment [4] is T2, 人源TGFβ1蛋白(Sinobiological，10804-H08H). Briefly: ELISA, human TGFβ1 coated at 2 μg/mL, HRP goat anti-human IgG. (In general: In an ELISA, binding on a coated surface is turned into a signal by an enzyme label.)
T2 sequence (P01137 30-390 limits assumed): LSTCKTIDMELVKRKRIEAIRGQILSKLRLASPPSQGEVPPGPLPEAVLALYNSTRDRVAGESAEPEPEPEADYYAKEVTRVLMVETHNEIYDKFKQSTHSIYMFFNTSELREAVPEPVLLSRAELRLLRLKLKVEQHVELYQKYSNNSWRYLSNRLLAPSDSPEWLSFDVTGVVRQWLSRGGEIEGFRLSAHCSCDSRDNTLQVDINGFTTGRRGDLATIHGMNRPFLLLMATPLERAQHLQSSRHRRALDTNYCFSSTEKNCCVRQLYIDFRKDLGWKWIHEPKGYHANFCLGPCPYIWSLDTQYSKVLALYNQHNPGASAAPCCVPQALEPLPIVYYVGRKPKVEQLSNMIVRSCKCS

What is called EC50 is the concentration that produces a half-maximal response. A lower EC50 goes with a more potent agent.

Read-outs that look alike come from different tables or passages of the source.

T1 sequence (Q15116 25-288): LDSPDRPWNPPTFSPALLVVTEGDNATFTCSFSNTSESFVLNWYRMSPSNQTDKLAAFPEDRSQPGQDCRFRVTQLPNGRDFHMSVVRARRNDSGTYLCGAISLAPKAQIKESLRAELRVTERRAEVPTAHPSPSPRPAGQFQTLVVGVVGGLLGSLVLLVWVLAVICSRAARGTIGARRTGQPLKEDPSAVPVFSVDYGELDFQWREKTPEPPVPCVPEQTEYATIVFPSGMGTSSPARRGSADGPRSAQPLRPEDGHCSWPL

B1: PD1/TGFβRII融合蛋白 (other)
heavy: EVQLVESGGGLVQPGGSLRLSCAASGFAFSSYDMSWVRQAPGKGLDWVATISGGGRYTYYPDSVKGRFTISRDNSKNNLYLQMNSLRAEDTALYYCANRYGEAWFAYWGQGTLVTVSSASTKGPSVFPLAPSSKSTSGGTAALGCLVKDYFPEPVTVSWNSGALTSGVHTFPAVLQSSGLYSLSSVVTVPSSSLGTQTYICNVNHKPSNTKVDKKV[sequence of human IgG1 Fc with L234A L235A G237A (EU numbers) not given]AGGGGSGGGGSGGGGSGGGGSGIPPHVQKSVNNDMIVTDNNGAVKFPQLCKFCDVRFSTCDNQKSCMSNCSITSICEKPQEVCVAVWRKNDENITLETVCHDPKLPYHDFILEDAASPKCIMKEKKKPGETFFMCSCSSDECNDNIIFSEEYNTSNPD
light: DIQMTQSPSSMSASVGDRVTFTCRASQDINTYLSWFQQKPGKSPKTLIYRANRLVSGVPSRFSGSGSGQDYTLTISSLQPEDMATYYCLQYDEFPLTFGAGTKLELKRTVAAPSVFIFPPSDEQLKSGTASVVCLLNNFYPREAKVQWKVDNALQSGNSQESVTEQDSKDSTYSLSSTLTLSKADYEKHKVYACEVTHQGLSSPVTKSFNRGEC
notes: Made in CHO cells; also called PD-1/TGFβ双功能蛋白
As for B1, the “EC50值(ng/mL), 报告基因法 PD-1端生物学活性” value in the experiment with 人源PD-1 [1] is 282 ng/mL; with 人源PD-1 [2], 158 ng/mL. Further, the results for the EC50 in experiment [3] and in experiment [4] were 0.0617 µg/mL and 0.398 nM, respectively.
